# Test results from the supplement of paper PMC3334620.
# Whole data set: some 33,000 sequences, median “E-score (-0.5 to 0.5)” near -0.056, cut for the highest 2% near 0.38. The list shows a part of the results.
# Target: Stb4 (UniProt P50104)
# Test: PBM E-score (8-mer binding enrichment) (E-score (-0.5 to 0.5)); higher = stronger / more preferred TF binding; most listed sequences are background and not binding sites
# Conditions: protein concentration: 200 nM; construct: GST-DNA-binding domain
# How it was run: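 Full-length yeast transcription factors or their DNA-binding domains, GST-tagged and expressed with PURExpress, were applied at about 100-200 nM to universal all-10-mer Agilent arrays. These arrays had been made double-stranded by primer extension on fresh or once-stripped slides. Detection used fluorescent anti-GST, normalisation used masliner, and E-scores for ungapped eight-base words pooled with reverse complements came from the Universal PBM Analysis Suite.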
row,Sequence,PBM E-score
1,AAGCCCGC,-0.0105
2,AGTCTAAT,-0.22
3,GATTGACA,-0.13
4,AGGGTCTG,-0.261
5,AGACATTC,-0.0662
6,CCAAAGAA,-0.142
7,CAGACCAG,-0.113
8,CCTGTGCA,-0.155
9,GGCAAGGA,-0.0044
10,CAGCACTG,-0.286
11,AAGAGAGC,-0.0244
12,CCGGTAAA,0.312
13,ACTCGACC,-0.00455
14,ATAGATAA,-0.0273
15,CACTGTAG,-0.159
16,CCTAACGC,0.0169
17,AGCTGAAT,-0.292
18,CATCAGTA,-0.226
19,CACTGTTA,-0.0754
20,CGTTCCTC,0.0883
21,AACCGAGG,0.355
22,ACCGCTGC,-0.0977
23,CATTGTAA,-0.148
24,AACCGCAG,0.0321
25,ACGACTCC,-0.153

row,Sequence,PBM E-score
1,CATCATGA,-0.119
2,ATAACTTA,-0.256
3,GAGTTGTA,-0.0447
4,CCCCGCCG,0.206
5,CGACTGAG,-0.0628
6,AGTGGAAT,-0.059
7,CATTAACA,-0.125
8,ATATGGTC,-0.17
9,CCACGCAC,0.0161
10,CTCGCTTA,0.0647
11,ATCTGCCA,-0.112
12,AAATTGTT,0.0532
13,ACAGCTGC,-0.219
14,ATGATTGA,-0.224
15,ATAACCTG,-0.134
16,ACCACACA,-0.0514
17,GGAGGGCC,-0.168
18,CTGACCTA,-0.22
19,CACATGCC,0.0149
20,CTTGGGGA,-0.211
21,ACTCGCAT,-0.0739
22,CCGTAAGG,-0.0631
23,GTTAGATA,-0.139
24,TGACAACA,-0.116
25,ACTAGGCC,-0.146

row,Sequence,PBM E-score
1,AGAGGTGG,0.0121
2,AGTAAAGG,0.119
3,CACGCGAG,-0.1
4,GAGCAGAC,-0.161
5,GGTGACGA,-0.194
6,CAGCTCCC,-0.0256
7,GAACCTCC,0.163
8,ATTAAACA,-0.236
9,AATATCTA,-0.0944
10,GGAACCTA,0.243
11,ACTGAATG,0.0782
12,CGCCTACG,0.0238
13,ATGAACGA,-0.136
14,TGACCAAA,-0.0981
15,AATAATCT,0.0237
16,ATTAGGCG,-0.0263
17,ATGACATC,-0.0123
18,CCCTAGGG,-0.137
19,CACCTCAA,-0.156
20,CTTGCCAA,-0.151
21,TTCAGGAA,-0.0828
22,AAAGACCA,-0.146
23,AAAGTAAG,-0.14
24,CATCGGGC,0.181
25,TGGATACA,-0.147

row,Sequence,PBM E-score
1,GGCGGACC,0.186
2,CCCGTTGA,0.0212
3,GCCAGCAA,-0.128
4,CTAAACAC,-0.142
5,ACGACTAA,-0.224
6,CACCTCAG,-0.26
7,CAAGGCCA,-0.182
8,CGTGAGGC,-0.0397
9,AGGGATCG,0.0754
10,CAGATTGC,-0.0992
11,ACCGCCCT,-0.16
12,GGCGGGAA,0.233
13,ACGACTAT,-0.151
14,CTCATCCC,-0.0322
15,CATCGATA,-0.0351
16,CGCCGACG,0.22
17,ACACCCCC,-0.161
18,GGCGCCAC,-0.0805
19,CAGCTTCC,0.122
20,GTGGGAAC,-0.102
21,TCCAAGCA,-0.252
22,CACGGTCG,-0.0595
23,CTGTCTAA,-0.151
24,TCTAGGCA,-0.0114
25,GATTCCGC,0.222

row,Sequence,PBM E-score
1,ATCGTAAC,0.156
2,ACGGTGGG,-0.054
3,CGGTACCG,0.378
4,GGCTTTTA,-0.0732
5,CGCGAGGA,0.0296
6,AAATAAGC,-0.113
7,ACTTGTAA,-0.204
8,AATATGTC,-0.172
9,GCTGGTCC,-0.0162
10,GCCAACTA,-0.262
11,ATTTAGTC,-0.0745
12,CGAAAAGC,0.0706
13,CCCGTGTC,0.245
14,CAGAGGAA,-0.245
15,CCATTCGC,-0.277
16,TGTCGTAA,-0.215
17,CGGTAAGC,0.212
18,AGCTTAAA,-0.183
19,AACCTATG,-0.283
20,GTCGCGAC,0.284
21,CCGCAAGC,-0.024
22,CACGTGCA,-0.309
23,CTTAGCAA,-0.144
24,ACTGATTC,-0.0527
25,GAAATTCA,0.0631

row,Sequence,PBM E-score
1,ACAAAGGC,-0.155
2,AATGTGCG,0.0205
3,AGAACATC,-0.00488
4,CTAACTTC,0.064
5,AGCTTCTG,0.0226
6,GGCACTGA,0.0603
7,AACGTGCC,-0.0293
8,GCTTCAAA,-0.163
9,GGACCTCA,-0.139
10,ATGAGGGC,0.0421
11,GCGCTTAC,0.116
12,AACAACAT,-0.0799
13,CACCCGCA,0.219
14,GACATAAC,0.233
15,CACAGAGC,-0.185
16,AGATTTTG,-0.0142
17,AGTGTAGG,-0.103
18,ACTCAAGT,-0.268
19,TGCGGACA,0.0349
20,GGGCTACA,-0.161
21,CAACGCCC,-0.0447
22,CGGCTTGA,0.2
23,TAAACAAA,-0.0349
24,CCTTAATC,-0.0352
25,CGCTGCTC,-0.115

row,Sequence,PBM E-score
1,AAATTCGC,0.0337
2,CCGACAGG,0.306
3,CAATACAG,-0.124
4,ATCGCGTG,0.0348
5,CTACAATC,-0.00051
6,CTTTGGAA,-0.158
7,CGGATATA,0.452
8,CGATCAGC,0.0117
9,AAGGTTAG,-0.233
10,AGATCCCG,0.407
11,GGCCAGTA,-0.0686
12,CGTATTTA,-0.00042
13,CAGGGCCC,-0.11
14,ACTCTCAA,-0.413
15,AGGCTACA,-0.254
16,CCAGCACC,-0.191
17,CCTTACCA,-0.278
18,AATGTTAT,0.00102
19,ACCACCCC,-0.115
20,ACTTAAAG,-0.237
21,CTGTTAAC,0.118
22,CACCTCTA,-0.00727
